# Measurements: the supplement of paper PMC3724861
# This is one part of the list.
# System: T1, Caupolican (Caup) homeodomain DNA-binding domain
# T1 sequence: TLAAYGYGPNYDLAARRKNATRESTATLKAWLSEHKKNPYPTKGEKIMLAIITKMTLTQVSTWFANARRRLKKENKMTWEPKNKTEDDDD
# Assay: PBM E-score (8-mer, recovered from the published 9-mer minima) (E-score (dimensionless, -0.5 to 0.5)); Drosophila protein; higher = stronger relative binding preference, active = 0.31 or more
# Summary of the method: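 Caup's homeodomain DNA-binding domain (residues 214-303) was made by in vitro transcription and translation and applied at 100 nM to custom-designed protein binding microarrays. Each value is an enrichment score that gives relative binding preference for a short DNA word, with higher meaning stronger. The 8-mer values were recovered from published 9-mer scores, each of which was the minimum of its two constituent 8-mer scores. A cutoff of 0.31 marks candidate sites.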
row,Sequence,PBM E-score
1,ATAATCGA,inactive: 0.0683
2,ACTTCCGC,inactive: -0.0678
3,AGAGTGGG,inactive: -0.131
4,CGCTGGAC,inactive: -0.13
5,AGTTTCAC,inactive: 0.0192
6,CACCAGTG,inactive: 0.0581
7,CCATCGAA,inactive: -0.067
8,CAGACTAG,inactive: 0.0926
9,CTCAGGAG,inactive: -0.144
10,ACGGCTGC,inactive: -0.0989
11,CAAGTATA,inactive: 0.0844
12,CATACGGG,inactive: -0.0993
13,CACGGAGG,inactive: -0.0286
14,ACTGCGCG,inactive: -0.148
15,AAATACTG,inactive: 0.0706
16,AGCCGTCG,inactive: -0.122
17,AGGGAAGA,inactive: -0.0602
18,ATAACGAT,inactive: 0.111
19,AGGGAATC,inactive: 0.0178
20,CATGTAGG,active: 0.356
21,ATGGATAA,inactive: 0.124
22,TTTAAAAA,inactive: 0.00517

row,Sequence,PBM E-score
1,GACTATTA,inactive: 0.0719
2,AGGAAAAC,inactive: 0.0105
3,CTCACTGC,inactive: -0.0769
4,ATGGCAGC,inactive: -0.0408
5,GTGGACGA,inactive: -0.0222
6,AAACAGCG,inactive: 0.102
7,ACGTGATG,inactive: 0.111
8,ACCACGAA,inactive: 0.0497
9,CGTACCAA,inactive: 0.0356
10,GGCTATTA,inactive: -0.0237
11,CTAGTACA,active: 0.337
12,AGGTGAGA,inactive: -0.0156
13,AGCTTTCC,inactive: -0.213
14,AGAGCCGA,inactive: -0.0838
15,ATCCGAAC,inactive: 0.094
16,CCGTTTTA,inactive: 0.0132
17,CCAATTGG,inactive: -0.0667
18,ACATAGTG,inactive: 0.261
19,GCTGCTTA,inactive: -0.0334
20,GACTAACC,inactive: -0.0023
21,TAGATAAA,inactive: 0.131
22,CACTCAAC,inactive: 0.0378

row,Sequence,PBM E-score
1,GGTGGATA,inactive: -0.00667
2,ACGAAACG,inactive: 0.0226
3,AGGTCCTG,inactive: -0.0862
4,AGAGCTTC,inactive: -0.153
5,AAACCACA,inactive: 0.14
6,ACAAACCG,inactive: 0.0217
7,GACAAGTA,active: 0.355
8,CGCTCGAA,inactive: -0.0903
9,CCCTGTAG,inactive: 0.0794
10,ATCTGAAA,inactive: -0.0287
11,AGACGTCC,inactive: -0.0206
12,GATACTGC,inactive: 0.0885
13,CACCGGGG,inactive: -0.279
14,CTAATGGC,inactive: -0.112
15,AGCGTGCA,inactive: 0.0131
16,ATTCACTG,inactive: 0.059
17,AAAACTCT,inactive: -0.0466
18,CACTCGCA,inactive: -0.0749
19,ATAGGCCA,inactive: -0.0897
20,CCCACAAC,inactive: -0.112
21,CGGTGGGA,inactive: -0.258
22,AGATCTCG,inactive: -0.0451

row,Sequence,PBM E-score
1,CCAAAAAC,inactive: 0.0878
2,CACATTCA,inactive: 0.0769
3,CAGACCGC,inactive: -0.127
4,ACTATCAG,inactive: 0.083
5,AATCAGTC,inactive: 0.104
6,ATGCTAGC,inactive: 0.0581
7,AGTACTGA,inactive: 0.0906
8,ACCGGGCG,inactive: -0.275
9,CAATTGGA,inactive: 0.0086
10,ATGGTTTC,inactive: 0.126
11,GACAATCC,inactive: 0.0406
12,TAAGTCAA,inactive: 0.0724
13,CTTATAGA,inactive: -0.0369
14,ACCATTGA,inactive: 0.0779
15,AAGCAAGA,inactive: 0.085
16,ACCACGCC,inactive: -0.154
17,GCCTACGA,inactive: -0.0486
18,TCGACCGA,inactive: -0.161
19,GTATCGTA,inactive: 0.171
20,AACGCAAG,inactive: -0.0235
21,CAAGTCCA,inactive: -0.0273
22,CGAATAAG,inactive: -0.00374

row,Sequence,PBM E-score
1,CAACACGA,inactive: 0.267
2,CAACCCCC,inactive: -0.109
3,CGGCCCGA,inactive: -0.155
4,CACGTGTA,active: 0.329
5,CCACATGG,inactive: -0.0747
6,GACATCTA,inactive: 0.218
7,AGTACGAC,inactive: 0.124
8,AGGAGAAG,inactive: -0.0919
9,AGCCATTC,inactive: -0.0817
10,AATAATAT,inactive: 0.208
11,GTGTCTCA,inactive: 0.0985
12,CACAGAAC,inactive: 0.105
13,CAGCCATA,inactive: -0.0297
14,CTAGGGAC,inactive: -0.123
15,AAGTCTGA,inactive: 0.0516
16,CGAGGCCG,inactive: -0.2
17,CTTGGGTC,inactive: -0.0686
18,AGGCAATA,inactive: 0.0132
19,TTGGAAAA,inactive: 0.0781
20,GCAGTAGC,inactive: -0.147
21,CACCCTCG,inactive: -0.0535
22,AACGAATA,inactive: 0.00416
